SMILES strings stand for the structures. Hit rate of the full screen: of about 310,000 compounds, about 2,200 (0.71%) showed an effect of 50% or more. Effects have a minus sign here. The list shows a part of the results.

The target in this assay is human ether-à-go-go-related gene (hERG) potassium channel (human, UniProt Q12809). Nature of the assay: primary screen, population patch clamp on CHO cells stably expressing hERG.
Sequence of human ether-à-go-go-related gene (hERG) potassium channel (Q12809 whole entry, looked up): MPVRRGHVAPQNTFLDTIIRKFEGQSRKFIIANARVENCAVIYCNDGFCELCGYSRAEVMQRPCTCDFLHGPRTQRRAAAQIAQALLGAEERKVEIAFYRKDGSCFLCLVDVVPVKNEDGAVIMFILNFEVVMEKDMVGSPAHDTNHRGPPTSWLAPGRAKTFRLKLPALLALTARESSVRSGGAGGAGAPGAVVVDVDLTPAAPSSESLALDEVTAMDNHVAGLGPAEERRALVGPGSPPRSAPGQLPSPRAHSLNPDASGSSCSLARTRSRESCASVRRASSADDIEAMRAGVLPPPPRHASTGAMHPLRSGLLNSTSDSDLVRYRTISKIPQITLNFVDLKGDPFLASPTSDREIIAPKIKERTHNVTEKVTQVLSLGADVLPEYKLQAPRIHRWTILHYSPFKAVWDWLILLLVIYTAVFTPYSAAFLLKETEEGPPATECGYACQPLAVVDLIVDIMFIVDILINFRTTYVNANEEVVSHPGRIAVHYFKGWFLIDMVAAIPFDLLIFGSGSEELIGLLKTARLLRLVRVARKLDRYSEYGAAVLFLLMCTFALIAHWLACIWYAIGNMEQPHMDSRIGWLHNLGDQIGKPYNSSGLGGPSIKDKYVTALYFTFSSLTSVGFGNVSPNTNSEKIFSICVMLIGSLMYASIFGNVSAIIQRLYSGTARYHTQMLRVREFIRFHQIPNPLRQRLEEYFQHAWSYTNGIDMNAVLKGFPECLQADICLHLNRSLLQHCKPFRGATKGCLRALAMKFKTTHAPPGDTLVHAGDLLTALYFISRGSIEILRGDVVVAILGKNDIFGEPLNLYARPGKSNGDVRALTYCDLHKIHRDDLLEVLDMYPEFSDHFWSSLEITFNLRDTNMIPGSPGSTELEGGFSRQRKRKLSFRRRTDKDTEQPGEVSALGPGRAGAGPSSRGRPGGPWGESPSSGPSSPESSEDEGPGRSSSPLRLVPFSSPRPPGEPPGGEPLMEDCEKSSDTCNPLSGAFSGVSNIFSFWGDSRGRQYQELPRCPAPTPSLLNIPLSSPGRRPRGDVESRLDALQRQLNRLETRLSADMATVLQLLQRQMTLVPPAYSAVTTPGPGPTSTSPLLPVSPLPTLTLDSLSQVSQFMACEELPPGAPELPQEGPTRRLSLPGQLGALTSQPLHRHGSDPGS
Regarding `CN(CC(=O)NCc1cccnc1)S(=O)(=O)c1ccc(F)cc1`, the “hERG current change (%, negative = inhibition) at 1uM” value turned out to be 14.6%. The value for `CCc1noc(N)c1C(=O)Nc1ccc(Cl)cc1` was 6.37%; that for `COC(=O)c1ccccc1OCC(=O)NC1CCCCC1` was 3.56%. Take `CC(=O)NC1C(OC(=O)Cc2ccccc2)OC(COC(C)=O)C(OC(C)=O)C1OC(C)=O` (centres unmarked): the “hERG current change (%, negative = inhibition) at 1uM” value was determined as 8.61%. As to `O=C(Nc1nc(-c2cccnc2)cs1)c1ccccc1[N+](=O)[O-]`, the “hERG current change (%, negative = inhibition) at 1uM” value was determined as 11.9%. Turning to `COc1ccccc1NC(=O)Nc1nc(CC(=O)Nc2ccccc2F)cs1`, the “hERG current change (%, negative = inhibition) at 1uM” value stood at 14.4%.

Take `COCc1c(C(=O)N2CCN(CCOc3ccccc3)CC2)oc2ccccc12`: the “hERG current change (%, negative = inhibition) at 1uM” value is on record as -34.6%. `O=C(O)c1ccc(/C=C2\COc3ccccc3C2=O)cc1`: the “hERG current change (%, negative = inhibition) at 1uM” value came out at 9.08%. The value for `CC(C)(C)NC(=O)C1CN(S(=O)(=O)c2ccccc2)CCN1S(=O)(=O)c1ccccc1` (centres unmarked) was 5.13%; that for `CCOC(=O)c1cc(-c2ccc(C)cc2)n(CCC(=O)NCCN(C)C)c1C` was -7.46%; that for `CCN(CC(=O)Nc1ccc(NC(C)=O)cc1)C(=O)c1cccnc1Sc1ccc(C)c(C)c1` was 6.21%.

In the case of `COc1cccc(N2C(=O)C3C(C2=O)C2C=CC3C23CC3)c1` (centres unmarked), the “hERG current change (%, negative = inhibition) at 1uM” value is 10%. The value for `COc1ccccc1/C=C/CN1CCC(n2nccc2NC(=O)C2CC2)CC1` was -37.8%; that for `Cc1cc(C)c2c(=O)[nH]c(SCc3ccccc3C)nc2n1` was 15%; that for `CCOC(=O)C(=NC1CCS(=O)(=O)C1)NNc1ccc(Br)cc1` (centres unmarked) was 7.49%. The value for `CCC1Oc2ccc(C)cc2N(CC(=O)NCCCN2CCCCC2CC)C1=O` (centres unmarked) was 1.52%; that for `CC1(C)C2CCC1(C)C(OC(=O)CSc1nc(N)cc(=O)[nH]1)C2` (centres unmarked) was 10.2%; that for `O=C(NCc1n[nH]c(=S)n1-c1ccc(F)cc1)c1ccc(S(=O)(=O)N2CCOCC2)cc1` was 12.1%.

Regarding `COc1ccccc1N1CCN(C(=O)C(C)CS(=O)(=O)c2ccc3c(c2)NC(=O)CS3)CC1` (centres unmarked), the “hERG current change (%, negative = inhibition) at 1uM” value was 10.8%. Consider `CC(=O)Nc1ccc(NC(=O)C(C)OC(=O)C2CCCC2)cc1` (centres unmarked), for which the “hERG current change (%, negative = inhibition) at 1uM” value stood at 19.1%. For `CC1(c2ccc(OC(F)F)cc2)NC(=O)N(CC(=O)c2ccc3c(c2)OCO3)C1=O` (centres unmarked), the “hERG current change (%, negative = inhibition) at 1uM” value is -12.5%. As for `CCO[C@H]1OC(C(=O)Nc2ccccc2)=C[C@@H](c2csc3ccccc23)[C@@H]1CCCO`, the “hERG current change (%, negative = inhibition) at 1uM” value was found to be 17.9%. The figure for `O=C(O)c1ccc(S(=O)(=O)c2ccc3c(c2)C(=O)N(NC(=O)c2ccncc2)C3=O)cc1` is 5.01%; for `CC(C)(C)n1nnnc1C(c1cccc(C(F)(F)F)c1)N1CCC(O)CC1` (centres unmarked) it is 4.89%; for `CCOC(=O)Nc1cccc(Cl)c1C` it is 13.3%.

Take `O=C(Cc1ccc(S(=O)(=O)N2CCCC2)s1)N1CCN(c2ccccc2)CC1`: the “hERG current change (%, negative = inhibition) at 1uM” value was found to be 10.9%. The value for `CCc1cccc2c(C(=O)CSc3nnc(-c4ccoc4C)n3C)c[nH]c12` was 3%; that for `Cc1ccc(C2C(C#N)=C(N)N(c3cccnc3)C3=C2C(=O)CCC3)s1` (centres unmarked) was 12%. For `O=C(C[n+]1cc(Br)cc2ccccc21)c1ccc(F)cc1.[Br-]`, the “hERG current change (%, negative = inhibition) at 1uM” value came to 1.5%. On to `COc1ccc(C2C(C(=O)c3ccco3)=C(O)C(=O)N2Cc2cccnc2)cc1OC` (centres unmarked), for which the “hERG current change (%, negative = inhibition) at 1uM” value is listed as 11.2%. Take `NC(=O)c1cc2cc(Cl)ccc2oc1=O`: the “hERG current change (%, negative = inhibition) at 1uM” value amounted to 8.58%. For the compound `Cl.c1ccc(CSCc2cn3ccccc3n2)cc1`, the “hERG current change (%, negative = inhibition) at 1uM” value is given as 12.7%. In the case of `Cc1cccc(NC(=S)NCc2ccc3c(c2)OCO3)c1`, the “hERG current change (%, negative = inhibition) at 1uM” value came out at 10.1%. The figure for `O=C(COC(=O)C1CC(O)CN1C(=O)Oc1ccccc1)c1ccc(Br)cc1` (centres unmarked) is 4.64%; for `NC(=O)NC(CC(=O)NCCCc1ccccc1)c1ccc(Cl)cc1` (centres unmarked) it is 6.05%; for `Cc1ccccc1NC(=O)c1ccccc1NS(=O)(=O)c1cccc2cccnc12` it is 9.18%. The value for `COC(C[C@@H](O)C[C@@H](O)[C@@H](C)OCc1ccccc1)OC` was 12.9%. The value for `O=C(CSc1nnc(-c2ccc(F)cc2)n1CC1CCCO1)NCc1ccco1` (centres unmarked) was 13.4%; that for `O=C(Nc1ccc(Cl)cc1C(=O)N1CCCCC1)c1ccco1` was 13.2%. As for `O=C(Nc1nc2c(s1)CCCC2)c1cccnc1`, the “hERG current change (%, negative = inhibition) at 1uM” value was -1.52%.

Take `CCC(=O)Nc1ccc(Oc2ccc(NC(=O)CC)c(NC(=O)CC)c2)cc1`: the “hERG current change (%, negative = inhibition) at 1uM” value worked out at 8.73%. For the compound `COc1ccc(-c2nnc(SCC(N)=O)n2N)cc1`, the “hERG current change (%, negative = inhibition) at 1uM” value came out at 8.86%. The figure for `O=C(/C=C/c1cccnc1)c1cccc(O)c1` is 14.3%; for `O=C(CSc1nnc(-c2ccccc2Cl)o1)Oc1ccc(Br)cc1` it is 24.7%; for `O=C(/C=C/c1ccco1)NC(=S)Nc1ccc(C(=O)O)cc1` it is 10.6%. On to `CCC(=NCc1cc(OC)cc(OC)c1)c1c(O)n(C2CCCCC2)c(=O)[nH]c1=O`, for which the “hERG current change (%, negative = inhibition) at 1uM” value came to 18.5%. The figure for `CCc1cc(C(=O)N2CCN(c3ncc(C(F)(F)F)cc3Cl)CC2)sc1C` is 6.5%; for `Cc1ccc(OCC(=O)NNC(=O)Cn2c(=O)cnc3ccccc32)cc1` it is 9.53%. The value for `Cc1nn(C)cc1S(=O)(=O)N1CCN(c2cccc(Cl)c2)CC1` was 14%.

Take `NC(=O)N\N=C/C=C/C=C/c1ccc(F)cc1`: the “hERG current change (%, negative = inhibition) at 1uM” value stood at 17.8%. The value for `CC(C)CC(c1nnnn1Cc1cccs1)N1CCN(c2nc3ccccc3s2)CC1` (centres unmarked) was 7.06%; that for `CNS(=O)(=O)c1cc(Cl)ccc1Sc1ccccc1C(=O)O` was 12.6%. For the compound `COC(C[C@H]1O[C@H]1C(=O)[C@H](C)OCc1ccccc1)OC`, the “hERG current change (%, negative = inhibition) at 1uM” value is reported as 18.3%.

For `COc1ccc(Cn2c(=O)c3cccnc3n(Cc3ccc([N+](=O)[O-])cc3)c2=O)cc1`, the “hERG current change (%, negative = inhibition) at 1uM” value turned out to be 10.9%. The value for `Cc1nc(-c2ccc(S(=O)(=O)Nc3cccc(Cl)c3)cc2)co1` was 17.3%. The figure for `c1ccc2c(c1)nc1n2CCN1CCNC1CCCCC1` is -0.965%.

Regarding `Cc1cc(C(=O)COc2cccc3cccnc23)c(C)n1C`, the “hERG current change (%, negative = inhibition) at 1uM” value came out at 14.2%.

Turning to `Cc1cc(=O)[nH]c(SCC(=O)c2ccc(C)c(C)c2)n1`, the “hERG current change (%, negative = inhibition) at 1uM” value came to 18.1%. The value for `Cc1ccc2nc(-c3ccccc3)nc(SC(C)C(=O)NCc3cccs3)c2c1` (centres unmarked) was 16.6%.

Take `Cc1nc2ccccc2c(=O)n1NC(=O)C1CC1`: the “hERG current change (%, negative = inhibition) at 1uM” value is 11.6%. The figure for `O=C(Nc1ccccc1-c1nnc(SCc2ccccc2Cl)o1)c1ccccc1` is -6.53%; for `Cc1cccc(N(CC(=O)NCCC2=CCCCC2)S(C)(=O)=O)c1C` it is 2.15%. `O=C(c1ccc(Cl)s1)N1CCN(c2ccccc2)CC1`: the “hERG current change (%, negative = inhibition) at 1uM” value is -3.28%. The value for `CC(=O)N1CC(C)Sc2ccc(S(=O)(=O)NC(C)c3ccccc3)cc21` (centres unmarked) was 8.39%; that for `COc1ccccc1C(=O)Nc1nc2cc3c(cc2s1)OCCO3` was 18.2%. Take `CCOc1ccc(S(=O)(=O)NC2CCCCC2C)cc1` (centres unmarked): the “hERG current change (%, negative = inhibition) at 1uM” value was 8.98%.

For `Cc1ccc(C)c(S(=O)(=O)Nc2cc(SCC(=O)O)c(O)c3ccccc23)c1`, the “hERG current change (%, negative = inhibition) at 1uM” value was determined as 6.16%. The value for `CC(=O)n1cc([C@@H]2C=C(C(=O)N3CCN(C)CC3)O[C@H](OCc3ccc(CO)cc3)C2)c2ccccc21` was -1.61%; that for `Cc1ccc(CNC(=O)C2CCCN(c3cnccn3)C2)cc1` (centres unmarked) was 19.9%. As for `COc1cccc(C(O)c2cnc(C(C)C)n2C)c1OC` (centres unmarked), the “hERG current change (%, negative = inhibition) at 1uM” value turned out to be 7.91%. The value for `CC(C)(C)OC(=O)NCCCCCNC(=O)c1[nH]cnc1C(=O)Nc1ccccc1` was -15.4%; that for `Cc1cc(CN(C)C(=O)c2ccc3nc(Cc4ccccc4F)oc3c2)n[nH]1` was 10.9%; that for `CCOCCCNC(=O)C(c1ccc(Cl)cc1)N(Cc1ccc2c(c1)OCO2)C(=O)CNC(C)=O` (centres unmarked) was 15%. The value for `Cl.O=C(CN1CCCCCC1)Nc1ccc(Oc2ccccc2)cc1` was -5.19%.

With `O=C(COC(=O)CCc1c[nH]c2ccccc12)NCc1ccc2c(c1)OCO2`, the “hERG current change (%, negative = inhibition) at 1uM” value is reported as 5.89%. The value for `O=C(COc1ccc2c3c(c(=O)oc2c1)CCC3)Nc1ccc(CCO)cc1` was 15%; that for `O=C(CSC1=NCCS1)Nc1cccc2ccccc12` was 13.9%. In the case of `Cc1nc(C/C(=N\N)c2ccc(O)cc2O)cs1`, the “hERG current change (%, negative = inhibition) at 1uM” value worked out at 9.62%. Turning to `CCOC(=O)C1(CCc2ccccc2)CCN(C(=O)CN2C(=O)CSC2=O)CC1`, the “hERG current change (%, negative = inhibition) at 1uM” value is given as -1.8%. The value for `COc1ccc(S(=O)(=O)NC2CCc3ccccc32)cc1OC` (centres unmarked) was 9.62%. The figure for `O=C1NC2(CCCc3ccccc32)C(=O)N1CCOc1ccc(Br)cc1` (centres unmarked) is 2.5%; for `CNC(=O)Nc1ccc2snnc2c1` it is 6.9%. The value for `CCc1ccc(/C=C/C(=O)C2C(=O)c3ccccc3C2=O)cc1` was 11.2%; that for `CCS(=O)(=O)C(=C1Nc2ccccc2N1)S(=O)(=O)CC` was 10.7%. `COc1cccc(N2CCN(S(=O)(=O)c3cn(C)cn3)CC2)c1`: the “hERG current change (%, negative = inhibition) at 1uM” value was determined as 18.7%. With `COCC(=O)Nc1c(C(=O)N2CCCC2)oc2ccccc12`, the “hERG current change (%, negative = inhibition) at 1uM” value stood at 8.9%. Consider `Clc1ccc(-c2noc(CSc3nnc(Cc4cccs4)n3-c3ccccc3)n2)cc1`, for which the “hERG current change (%, negative = inhibition) at 1uM” value stood at 14.7%. Consider `Cc1ccc(S(=O)(=O)NC(Cc2ccccc2)C(=O)O)cc1C` (centres unmarked), for which the “hERG current change (%, negative = inhibition) at 1uM” value came out at 15.1%.

On to `CCOC(=O)c1c(S(=O)(=O)N(C)Cc2ccccc2)c(C)n(C)c1C`, for which the “hERG current change (%, negative = inhibition) at 1uM” value worked out at 9.71%.

Source of the values: PMC4336329 (PLoS ONE, 2015).
